The values that follow come from publication PMC4336329 (PLoS ONE, 2015).

The whole screen tested about 310,000 compounds, of which about 2,200 (0.71%) showed an effect of 50% or more. The effect is printed as a negative number. The list shows a part of the results.

The target in this experiment is human ether-à-go-go-related gene (hERG) potassium channel (human, UniProt Q12809). Nature of the experiment: primary screen, population patch clamp on CHO cells stably expressing hERG.
Chain of human ether-à-go-go-related gene (hERG) potassium channel (Q12809 whole entry, looked up): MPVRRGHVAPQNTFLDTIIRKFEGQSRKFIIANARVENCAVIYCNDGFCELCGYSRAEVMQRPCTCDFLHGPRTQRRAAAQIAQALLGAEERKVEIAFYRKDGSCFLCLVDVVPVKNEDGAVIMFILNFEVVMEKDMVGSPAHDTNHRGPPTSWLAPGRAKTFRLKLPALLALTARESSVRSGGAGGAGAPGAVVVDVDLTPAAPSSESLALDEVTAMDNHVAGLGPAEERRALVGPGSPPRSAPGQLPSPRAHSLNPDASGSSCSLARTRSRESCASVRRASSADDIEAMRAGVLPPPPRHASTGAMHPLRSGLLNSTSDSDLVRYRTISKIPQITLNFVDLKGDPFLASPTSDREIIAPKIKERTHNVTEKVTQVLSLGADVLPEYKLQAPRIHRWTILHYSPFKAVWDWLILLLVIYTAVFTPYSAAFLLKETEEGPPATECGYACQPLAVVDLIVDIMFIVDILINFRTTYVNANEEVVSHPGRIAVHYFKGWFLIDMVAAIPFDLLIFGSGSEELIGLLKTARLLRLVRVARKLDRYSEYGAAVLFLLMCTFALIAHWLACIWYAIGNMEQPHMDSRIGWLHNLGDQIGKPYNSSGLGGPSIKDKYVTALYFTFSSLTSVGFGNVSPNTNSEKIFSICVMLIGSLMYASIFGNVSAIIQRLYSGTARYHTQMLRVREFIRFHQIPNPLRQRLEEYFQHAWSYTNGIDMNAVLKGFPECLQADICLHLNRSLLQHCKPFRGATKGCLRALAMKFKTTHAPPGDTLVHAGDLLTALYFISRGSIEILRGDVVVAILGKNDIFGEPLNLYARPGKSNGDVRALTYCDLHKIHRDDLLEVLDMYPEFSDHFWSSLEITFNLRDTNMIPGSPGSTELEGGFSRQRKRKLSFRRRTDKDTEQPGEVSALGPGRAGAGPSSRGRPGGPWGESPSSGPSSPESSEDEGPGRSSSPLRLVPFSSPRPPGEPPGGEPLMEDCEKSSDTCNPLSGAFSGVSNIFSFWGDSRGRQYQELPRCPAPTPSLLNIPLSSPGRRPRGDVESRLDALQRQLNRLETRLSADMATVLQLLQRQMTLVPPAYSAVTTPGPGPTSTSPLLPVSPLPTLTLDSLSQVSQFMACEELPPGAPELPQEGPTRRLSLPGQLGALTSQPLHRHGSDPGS
`Cn1c(=O)c2c(ncn2CC(=O)OCC(=O)Nc2sccc2C(N)=O)n(C)c1=O`: the “hERG current change (%, negative = inhibition) at 1uM” value worked out at 1.3%.
As for `CCOC(=O)C1(CCc2ccccc2)CCN(C(=O)c2cc(C)nc(C)n2)CC1`, the “hERG current change (%, negative = inhibition) at 1uM” value came out at 2.29%.
For `O=C(O)c1ccc(OC2CSC2)cc1`, the “hERG current change (%, negative = inhibition) at 1uM” value is listed as 20.5%.
For `CC1(C)Cc2c(ccc3ccccc23)/C(=C/C(=O)N2CCCCC2)N1.Cl`, the “hERG current change (%, negative = inhibition) at 1uM” value worked out at 8.34%.
Turning to `Cc1ccc(OCCC(=O)OCC(=O)c2ccc3c(c2)NC(=O)CO3)cc1`, the “hERG current change (%, negative = inhibition) at 1uM” value is on record as 0.269%.
Then `O=C(CSc1nnc(Cn2nnc3ccccc32)o1)N(Cc1ccc(Cl)cc1)c1ccccc1`, with 2.94%.
As for `Cc1ccc(NC(=O)C2CCC(=O)N2)cc1C` (stereo not drawn), the figure is 12.1%; as for `O=C(CCNC(=O)c1ccc([N+](=O)[O-])cc1)NNC(=O)c1ccccc1F`, 10.5%.
Then `Cc1nnc(SCc2cccc(Cl)c2)n(N)c1=O`, with 7.4%; and `O=C(Nc1ccc(Oc2ccc(Br)cc2)cc1)C1=CC=CN2CCS(=O)(=O)N=C12`, with 4.25%.
With `O=C(Nc1nnc(-c2ccccc2)o1)c1nc2ccccc2s1`, the “hERG current change (%, negative = inhibition) at 1uM” value is listed as 15%.
Turning to `Cc1ccc(N2C(=O)C3N=NN(CC(=O)N4N=C(c5ccccc5)CC4c4ccccc4)C3C2=O)cc1` (stereo not drawn), the “hERG current change (%, negative = inhibition) at 1uM” value is 1.61%.
Regarding `O=C(CN(C(=O)CCC(=O)Nc1ccccn1)c1ccc(F)cc1)NCc1ccco1`, the “hERG current change (%, negative = inhibition) at 1uM” value is 13.1%.
As for `O=C(CN1CCCc2ccccc21)NC(=O)NCc1ccco1`, the figure is 11.5%; as for `CCCCCCCCCCS(=O)(=O)N/N=C/c1ccc([N+](=O)[O-])cc1`, 12.9%.
As for `COc1ccc(N2C(=O)C(F)(F)C2c2ccc(C)cc2)cc1OC` (stereo not drawn), the figure is 6.63%; as for `Cn1c(CC(=O)Nc2ccc(F)cc2)nnc1SCC(=O)NC1CCCCC1`, 20%.
As for `CCN(CC)C(=O)c1sc(NC(=O)c2cccc([N+](=O)[O-])c2)c(C#N)c1C`, the figure is 7.41%; as for `Cc1cc(/C=N/NC(=O)c2ccc(CN3CCOCC3)cc2)c(C)n1-c1ccccc1`, -8.78%; as for `O=C(COc1ccccc1Cl)N1CCc2ccccc2C1`, 18.6%.
As for `Fc1ccc(N2CCN(C(c3cccs3)c3nnnn3C3CCCC3)CC2)cc1` (stereo not drawn), the “hERG current change (%, negative = inhibition) at 1uM” value is listed as -12.1%.
As for `CCC(=O)N1CCc2cc(OC)c(OC)cc2C1COc1ccc(C(=O)OC)cc1` (stereo not drawn), the figure is 5.53%.
As for `Cc1nc(N2CCOCC2)c2c(C)c(C(=O)Nc3ccc(C(F)(F)F)cc3)sc2n1`, the figure is -2.56%; as for `CCC(C)c1ccc(-n2c(=O)c3ccccc3n3c(=S)[nH]nc23)cc1` (stereo not drawn), 14.9%.
As for `C[n+]1cnn2c1SCC1(COC1)C2.[I-]`, the figure is 8.87%.
For the compound `COc1cccc(NC(=O)CN(C)C(=O)CSc2ccc3c(c2)OCCO3)c1`, the “hERG current change (%, negative = inhibition) at 1uM” value worked out at 4.45%.
For the compound `Cc1cc(F)ccc1NC(=O)c1ccc(NS(=O)(=O)c2cc(C(C)(C)C)ccc2C)cc1`, the “hERG current change (%, negative = inhibition) at 1uM” value turned out to be 9.77%.
As to `Cc1csc(Nc2ccccc2)[n+]1-c1ccccc1.[Br-]`, the “hERG current change (%, negative = inhibition) at 1uM” value is 7.89%.
As for `CCCCNC(=O)/C(C#N)=c1\s/c(=C\c2ccccc2OC(F)F)c(=O)n1CCCOC`, the figure is 19.5%.
With `O=C(CSc1cc(Cl)ccc1Cl)NCCCn1ccnc1`, the “hERG current change (%, negative = inhibition) at 1uM” value is reported as 13%.
As for `COC(=O)COc1ccc(Oc2cc(C)nc(SC)n2)nn1`, the figure is 9.92%; as for `CCOc1ccc(/C(O)=C2/C(=O)C(=O)N(CCCn3ccnc3)C2c2cccs2)cc1Cl` (stereo not drawn), 2.45%.
As for `CCOC(=O)C(C)n1cnc2c(nnn2Cc2ccc(Cl)cc2)c1=O` (stereo not drawn), the figure is -5.02%; as for `CN(C)C(=O)c1ccc(NC(=O)COC(=O)c2cc(S(=O)(=O)N(C)C)ccc2N2CCCC2)cc1`, -9.76%.
Turning to `COc1cccc(NC(=O)CN(Cc2ccccc2)S(C)(=O)=O)c1`, the “hERG current change (%, negative = inhibition) at 1uM” value is recorded as 8.68%.
For `COC(=O)c1ccc(CSc2nnc(CNC(=O)c3ccc(OC)cc3)o2)o1`, the “hERG current change (%, negative = inhibition) at 1uM” value is on record as 16.3%.
As for `CCOC(=O)c1c2n(c3ccc(O)cc13)CCCCC2`, the figure is 8.66%; as for `CCOC(=O)C1CCN(C(=O)c2ccc(S(=O)(=O)Nc3ccccc3OC)cc2)CC1`, 0.429%.
As for `COc1ccc(C(=O)/C=C/c2cn(CC(O)CN3CCOCC3)c3ccccc23)cc1` (stereo not drawn), the figure is 11.1%.
As to `Cc1ccc(OCC(=O)N/N=C\c2cn(Cc3ccccc3)c3ccccc23)cc1C`, the “hERG current change (%, negative = inhibition) at 1uM” value is 7.2%.
As for `COc1ccc([C@H]2CC(=O)C=C(/C=C/c3ccc(C(F)(F)F)cc3)C2)cc1`, the figure is -14.1%; as for `COc1ccc(CN(C(=O)c2cccs2)c2nccs2)cc1OC`, 12.2%; as for `COc1ccccc1CN(C)C(=O)c1ccccc1SCC(=O)N1CCCC1`, 20.5%.
Take `Cc1cccc(CNS(=O)(=O)c2ccc(-c3ccc(=O)[nH]n3)s2)c1`: the “hERG current change (%, negative = inhibition) at 1uM” value was 10.9%.
Then `COCCN1CCCC(CNCc2cn(C)nc2-c2ccc(Oc3ccccc3)cc2)C1` (stereo not drawn), with 8.37%; and `CCOC(=O)CSc1nnc(CSc2nc3ccccc3c(=O)[nH]2)n1-c1ccccc1`, with 10.6%.
As for `CCC(C)c1ccccc1N1CC(C(=O)Nc2cc(S(=O)(=O)N3CCOCC3)ccc2OC)CC1=O` (stereo not drawn), the figure is 8.44%; as for `CCCOC(=O)c1ccc(NC(=O)c2cccc(S(=O)(=O)N3CCN(C(C)=O)CC3)c2)cc1`, 8.61%; as for `Cc1ccc(S(=O)(=O)n2cnc3ccccc32)cc1`, 8.03%.
Then `CCOC(=O)Cc1csc(SCC(=O)Nc2cc(Cl)ccc2Oc2ccccc2)n1`, with 3.7%; and `COc1ccc(NC(=O)C23CC4CC(C2)CC(n2cnc(Br)n2)(C4)C3)c(OC)c1`, with -5.91%.
As to `O=[N+]([O-])c1ccccc1CNC(Cc1ccccc1)c1ccccc1` (stereo not drawn), the “hERG current change (%, negative = inhibition) at 1uM” value turned out to be 3.06%.
Then `Cc1cccc(Cn2ccc(N)n2)c1`, with 15.1%; and `CCn1c(=O)n(CC)c2cc(N3CCCC3)c(NC(=O)c3cccc(OC)c3)cc21`, with 9.95%.
